From the supplement of paper PMC3334620
The full ranking holds about 33,000 sequences; the median of “E-score (-0.5 to 0.5)” is about -0.04, and the highest 2% start at about 0.36. This is one part of the list.

Each sequence was assayed against T1, Hmlalpha2 (UniProt P0CY09) (assay: PBM E-score (8-mer binding enrichment) (E-score (-0.5 to 0.5)); higher = stronger / more preferred TF binding; most listed sequences are background and not binding sites). Settings: protein concentration: 200 nM; construct: GST-full length.
T1 sequence: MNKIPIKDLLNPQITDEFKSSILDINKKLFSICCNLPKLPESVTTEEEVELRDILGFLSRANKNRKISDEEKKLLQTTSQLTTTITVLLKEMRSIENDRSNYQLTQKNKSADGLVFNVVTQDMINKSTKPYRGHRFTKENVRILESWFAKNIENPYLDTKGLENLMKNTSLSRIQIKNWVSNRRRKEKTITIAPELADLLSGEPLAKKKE
Summary of the method: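 Using PURExpress in vitro transcription/translation, GST-tagged yeast transcription factors were made in full-length or DNA-binding-domain form. These were applied at about 100-200 nM to double-stranded universal all-10-mer Agilent arrays, and bound protein was detected with fluorescent anti-GST. Scans were normalised with masliner before the Universal PBM Analysis Suite assigned E-scores to ungapped eight-base words pooled with their reverse complements.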

Sequence | PBM E-score
GAAGCCTA | -0.125
TCAGCCCA | -0.114
CATCACTC | -0.122
GCTTGGCC | -0.283
CTAGAATC | -0.113
CATGTCAG | 0.314
CTTTAAAG | 0.0438
CTGTCACC | -0.0592
CCTCTACA | 0.189
AAAGTTGA | 0.0376
ATGTTTGG | 0.17
CCAACAAC | 0.158
AAGCGCCG | -0.0679
GATCTTGA | -0.0587
GGACGAAA | 0.038
TAAAAGCA | -0.097
AGAATAAT | 0.0208
AGGCCACC | -0.246
TCTTGGAA | 0.0595
AGGCTCAC | -0.202
ATACTTCG | -0.00072
GACCCCCC | -0.242
CTTCGGAA | -0.119
CACTTAAA | 0.125
AGCATTTC | 0.135

Sequence | PBM E-score
GTGGGTTA | -0.0705
CATAATAC | 0.196
TCAAAGAA | 0.232
ATTCTAGC | -0.0413
CAGATATG | 0.0264
GAAGGGTA | 0.0316
GCATTGGA | -0.157
GCCATGCC | -0.133
ATACTAAT | 0.121
AATCCCAC | -0.0548
GCTCCAGA | -0.207
CCCCAGCC | -0.303
CGTCGCCC | -0.103
ATGTGGGC | -0.174
CATTACGC | 0.321
CACAGCTA | 0.0928
ACGGACGG | -0.161
CGATAGGA | -0.14
AAGCGATG | -0.145
GAAAACAA | 0.185
TGGGCCAA | -0.0345
GGAGATTA | 0.0631
CAAGATAC | 0.186
CAGGTGGG | -0.0826
ATAAGCAT | -0.00286

Sequence | PBM E-score
ATGTATAA | 0.395
ATGGAAGA | -0.206
TGAACGCA | 0.131
CGGTGATC | -0.128
AATCTTCG | 0.253
CTATCTCC | -0.192
AGCCGACA | -0.0285
AGCGACAC | 0.112
AACTGTCG | 0.0572
ACGGCTGA | -0.00597
AATCCTCC | -0.332
CCTTCTTC | -0.233
AGACTACG | -0.158
GAGGCTCA | -0.344
AAATATAG | 0.108
GCATACAC | 0.256
CATTTTGA | -0.0382
CGACCCCG | -0.147
CGCTTAAA | 0.00069
TAAGGATA | -0.0306
ATTATTCA | 0.188
CTCCCAGC | -0.168
CCTTTATC | -0.214
TAAGTGTA | 0.187
GCTGGGAA | -0.139

Sequence | PBM E-score
ATCTCTCA | -0.0672
CGTAACGA | -0.0509
CCGGGTAG | -0.137
CGTTCGCA | 0.0412
ACTGCGGC | -0.325
TAACAGAA | 0.238
TTAGCCAA | 0.00387
CGCACCCC | -0.102
CGGTTGCC | -0.119
TATCTTCA | 0.0172
CGGAATAG | -0.0706
GAGAGAAC | -0.00521
CGCAGGGC | 0.0152
ACTGGAAT | 0.0461
AATGTTAG | 0.185
GCTCCTGA | -0.263
CACAAGCG | 0.074
GGTGCTAA | -0.042
AATCAATG | 0.161
GTGTGAGA | 0.0378
AATCTACG | 0.203
CACAACTA | 0.231
ACGGCCAC | -0.128
ATGGTTGA | -0.0541
AATTCAGG | 0.00401

Sequence | PBM E-score
CGCGTGGC | -0.141
CTCACAAA | -0.0772
TAACAATA | 0.25
CAGTGTAC | 0.154
AATTTAGC | 0.0165
CACTACAA | 0.268
ACGCGACG | 0.347
ACGGCGAT | -0.0673
AAAGTTCT | 0.0159
AAACTTCA | 0.0766
GATTAAGC | -0.0456
ACATAAGT | 0.356
CTCCCCGA | -0.191
CAAATCTG | -0.0335
ATCGAGAT | -0.115
GCACTCCC | -0.147
CGCCTTGA | -0.196
CGTCGCTA | -0.0358
TCGGTCAA | -0.0506
AAAGACCG | -0.119
GAAACTGA | -0.103
CCGACCTA | -0.128
GAGCCTAA | -0.0246
GAAGGCGC | -0.237
ATAATTCA | 0.221

Sequence | PBM E-score
TGCCGTAA | -0.0171
CAAGAACC | 0.0865
CGTTAACG | 0.211
CGCAACTA | 0.0764
CCGTTCCA | -0.0782
TCTGACAA | 0.138
AGCTATTA | 0.0436
CAATCCAG | -0.139
CTTTACGC | 0.42
CACTATGG | -0.0979
AGCGTCAT | -0.0362
CAAAGCGG | 0.0664
ACAGTTAG | -0.128
AGAGTGTG | 0.0438
ACACATAG | 0.282
GACTCGTA | 0.0321
GCTACGTA | 0.25
ACTTGCAT | 0.103
ACAGCGGG | -0.0601
ATTGCAGC | -0.145
CCCATACA | 0.0756
ACCTAAAC | 0.098
ATGCCTGG | -0.156
ATCCTAGC | -0.0219
GGGGAAAA | -0.236

Sequence | PBM E-score
AGAAACCA | -0.0818
GTTCTACA | 0.29
CGGCTGCA | -0.0118
CAGAACGA | 0.0755
CATAGGAC | -0.0432
AGATCGCC | -0.0822
CTTTATTC | -0.132
CCCTGGCC | -0.296
ATCGGTTA | 0.039
GCCACCGC | -0.33
GAAGAAAA | -0.00099
CATAGTCA | -0.00969
CCTGCAGG | -0.392
CAAGATTG | 0.0495
ACCCGTGC | -0.136
ATAACTAC | 0.288
AGAAGAGG | -0.209
CACCCCTC | -0.276
CGAGTCTC | -0.322
CGACCTAA | 0.0192
GTTTATAA | 0.295
GAGCCCCC | -0.389
CCTTGCTA | 0.00553
CAAGCGGA | -0.114
ATCCCCGA | -0.0944

Sequence | PBM E-score
CAATAAGA | 0.0453
ACGGCTCT | -0.193
ATACTTCA | -0.00082
ATCTTAAA | -0.0724
CCTCATTA | 0.138
ATTTGCTG | 0.024
TCGCCAAA | -0.179
AGTTCTCG | -0.0561
AAGTCAAC | 0.0754
CAGCGACC | -0.303
AATATCAC | -0.0554
AAAGGCAT | 0.0489
CTGCGATC | -0.182
AGCTGAGC | -0.16
GGAGGCGA | -0.148
AATCCTTG | 0.103
AACGCCCC | -0.0523
ATCAGAAA | -0.054
ATTCTCAG | -0.0746
AATAGGGC | 0.0131
ACTTTCAT | 0.0115
CAGGTGGA | -0.164
TGTAACAA | 0.384
CGTCTGAC | -0.139
CTAGTGAG | -0.133

Sequence | PBM E-score
ATCTTAAG | -0.218
CTTAACTA | 0.266
GAAAAAGC | -0.145
ACGAAAAG | 0.0451
CAACTGAC | -0.123
GCTCCACA | -0.222
AACACGTT | 0.403
GCAATAGA | -0.157
CTCCTTTA | -0.0707
ATGCTATA | 0.105
AAGAAATA | 0.14
ATCACAAC | 0.167
AGAGCCTA | -0.095
AGCGCCGA | -0.185
TCTGCAAA | 0.0308
GTACATAC | 0.362
AGAAAGTG | -0.223
ATGAGTAA | 0.0671
ATTGCATC | 0.104
